Assay results reported in the supplement of paper PMC4604168 (melanoma cell lines).
Some of the results follow. Repeats are few or missing, and single values can be far off.

Tests used:
Assay in all cases: cell count relative to DMSO control; melanoma cells; higher = more viable cells
Settings in all cases: library dose: standard library concentration; 72 h
[1] = system: 501Mel
[2] = system: A101D
[3] = system: A2058
[4] = system: A375
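Note: cells treated in 1,536-well plates, then fixed and DAPI-stained, with nuclei counted from automated high-throughput microscope images.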

Structure (SMILES) | cell count [1] | cell count [2] | cell count [3] | cell count [4]
Cn1cnc2c(F)c(Nc3ccc(Br)cc3Cl)c(C(=O)NOCCO)cc21 [selumetinib] + Cn1cc(/C=C2\C(=O)Nc3cccnc32)c2ccccc21 [GW441756] (first compound 0.075 µM, partner dose 2 µM) | 39.3% | 58% | 94.3% | 78.7%
C[C@]1(O)C[C@@H](c2nc(-c3ccc4ccc(-c5ccccc5)nc4c3)c3c(N)nccn32)C1 + N#Cc1c(O)c2c(-c3ccc(-c4ccccc4O)cc3)csc2[nH]c1=O [A769662] (first compound 2 µM, partner dose 10 µM) | 80.4% | 103% | 110% | 98.8%
CCN(CC)CCNC(=O)c1c(C)[nH]c(/C=C2\C(=O)Nc3ccc(F)cc32)c1C [sunitinib] + CC(C)CCN1c2nc(Nc3cc(F)c(O)c(F)c3)ncc2N(C)C(=O)C1C [BID1870] (first compound 2 µM, partner dose 1 µM) | 16.8% | 54.8% | 51.1% | 103%
Cn1cnc2c(F)c(Nc3ccc(Br)cc3Cl)c(C(=O)NOCCO)cc21 [selumetinib] + COc1ccc(-c2ccc3c(N4CCOCC4)nc(N4C[C@@H](C)O[C@@H](C)C4)nc3n2)cc1CO [KU0063794] (first compound 0.075 µM, partner dose 0.1 µM) | 34.2% | 66.2% | 127% | 83.9%
CCN(CC)CCNC(=O)c1c(C)[nH]c(/C=C2\C(=O)Nc3ccc(F)cc32)c1C [sunitinib] + N#Cc1c(O)c2c(-c3ccc(-c4ccccc4O)cc3)csc2[nH]c1=O [A769662] (first compound 2 µM, partner dose 10 µM) | 39.3% | 73.6% | 85.5% | 115%
CCN(CC)CCNC(=O)c1c(C)[nH]c(/C=C2\C(=O)Nc3ccc(F)cc32)c1C [sunitinib] + COc1cc(N2CCC(N3CCN(C)CC3)CC2)ccc1Nc1ncc(Cl)c(Nc2ccccc2S(=O)(=O)C(C)C)n1 [NVP-TAE684] (first compound 2 µM, partner dose 0.4 µM) | 45.4% | 64.2% | 50.4% | 95.8%
C[C@]1(O)C[C@@H](c2nc(-c3ccc4ccc(-c5ccccc5)nc4c3)c3c(N)nccn32)C1 + Oc1cc(-c2nc(-c3ccccc3)[nH]c2-c2ccncc2)ccc1Cl [L779450] (first compound 2 µM, partner dose 1 µM) | 70.6% | 77.4% | 90% | 71.3%
C[C@]1(O)C[C@@H](c2nc(-c3ccc4ccc(-c5ccccc5)nc4c3)c3c(N)nccn32)C1 + O=C(O)C(=O)Nc1sc2c(c1C(=O)O)CCNC2 [TCS401] (first compound 2 µM, partner dose 8.33333 µM) | 61.3% | 115% | 96.3% | 113%
CCN(CC)CCNC(=O)c1c(C)[nH]c(/C=C2\C(=O)Nc3ccc(F)cc32)c1C [sunitinib] + COc1cc2ncnc(Nc3ccc(Oc4ccccc4)cc3)c2cc1OC [SrcI1] (first compound 2 µM, partner dose 10 µM) | 26.8% | 15.7% | 42.5% | 105%
COc1cc([C@@H]2c3cc4c(cc3[C@@H](O[C@@H]3O[C@@H]5CO[C@@H](C)O[C@H]5[C@H](O)[C@H]3O)[C@H]3COC(=O)[C@H]23)OCO4)cc(OC)c1O [etoposide] + COc1ccc2c(c1)CCC1C2CCC2(C)C(NCCCCCCN3C(=O)C=CC3=O)CCC12 [U73122] (first compound 0.1 µM, partner dose 2 µM) | 81.1% | 72% | 64.8% | 81.7%
C[C@]1(O)C[C@@H](c2nc(-c3ccc4ccc(-c5ccccc5)nc4c3)c3c(N)nccn32)C1 + Cc1cc([N+](=O)[O-])ccc1NS(=O)(=O)c1cc(Cl)ccc1Cl [FH535] (first compound 2 µM, partner dose 5 µM) | 57.2% | 70.4% | 84.8% | 74.6%
COc1cc([C@@H]2c3cc4c(cc3[C@@H](O[C@@H]3O[C@@H]5CO[C@@H](C)O[C@H]5[C@H](O)[C@H]3O)[C@H]3COC(=O)[C@H]23)OCO4)cc(OC)c1O [etoposide] + O=C1NC(=O)/C(=C/c2ccc(-c3ccc(F)cc3O)o2)S1 [AS252424] (first compound 0.1 µM, partner dose 5 µM) | 75.3% | 117% | 89% | 86.9%
Cn1cnc2c(F)c(Nc3ccc(Br)cc3Cl)c(C(=O)NOCCO)cc21 [selumetinib] + O=C(Nc1ccccc1)c1cc([N+](=O)[O-])ccc1Cl [GW9662] (first compound 0.075 µM, partner dose 10 µM) | 38% | 70.1% | 89.7% | 102%
Cn1cnc2c(F)c(Nc3ccc(Br)cc3Cl)c(C(=O)NOCCO)cc21 [selumetinib] + O=C(O)C(=O)Nc1sc2c(c1C(=O)O)CCNC2 [TCS401] (first compound 0.075 µM, partner dose 8.33333 µM) | 48.7% | 79% | 90.6% | 108%
Cn1cnc2c(F)c(Nc3ccc(Br)cc3Cl)c(C(=O)NOCCO)cc21 [selumetinib] + O=c1cc(-c2cccc3c2Sc2ccccc2S3)oc(N2CCOCC2)c1 [KU55933] (first compound 0.075 µM, partner dose 5 µM) | 39.6% | 60.6% | 94.7% | 92.4%
CCN(CC)CCNC(=O)c1c(C)[nH]c(/C=C2\C(=O)Nc3ccc(F)cc32)c1C [sunitinib] + O=C1NC(=O)/C(=C/c2ccc(-c3ccc(F)cc3O)o2)S1 [AS252424] (first compound 2 µM, partner dose 5 µM) | 37.4% | 71.8% | 93% | 122%
Cn1cnc2c(F)c(Nc3ccc(Br)cc3Cl)c(C(=O)NOCCO)cc21 [selumetinib] + N#Cc1c(O)c2c(-c3ccc(-c4ccccc4O)cc3)csc2[nH]c1=O [A769662] (first compound 0.075 µM, partner dose 10 µM) | 34.6% | 82.1% | 91.2% | 110%
CCN(CC)CCNC(=O)c1c(C)[nH]c(/C=C2\C(=O)Nc3ccc(F)cc32)c1C [sunitinib] + COc1ccc(COc2ccc(Cc3cnc(N)nc3N)cc2OC)cc1 [GW2580] (first compound 2 µM, partner dose 5 µM) | 20.4% | 64% | 60.6% | 102%
Cn1cnc2c(F)c(Nc3ccc(Br)cc3Cl)c(C(=O)NOCCO)cc21 [selumetinib] + Oc1nc(-c2ccc(C(F)(F)F)cc2)nc2c1CSCC2 [XAV939] (first compound 0.075 µM, partner dose 10 µM) | 37.4% |  |  | 
Cn1cnc2c(F)c(Nc3ccc(Br)cc3Cl)c(C(=O)NOCCO)cc21 [selumetinib] + COc1ccc(C2=N[C@@H](c3ccc(Cl)cc3)[C@@H](c3ccc(Cl)cc3)N2C(=O)N2CCNC(=O)C2)c(OC(C)C)c1 [Nutlin-3] (first compound 0.075 µM, partner dose 0.5 µM) |  | 71.1% | 92.7% | 94%
CCN(CC)CCNC(=O)c1c(C)[nH]c(/C=C2\C(=O)Nc3ccc(F)cc32)c1C [sunitinib] + Cc1cc(N2CCOCC2)cc2[nH]c(-c3c(NC[C@@H](O)c4cccc(Cl)c4)cc[nH]c3=O)nc12 [BMS536924] (first compound 2 µM, partner dose 1 µM) |  | 67.1% | 78.5% | 79.1%
Cn1cnc2c(F)c(Nc3ccc(Br)cc3Cl)c(C(=O)NOCCO)cc21 [selumetinib] + Nc1nc(F)nc2c1ncn2[C@@H]1O[C@H](CO)[C@@H](O)[C@@H]1O [fludarabine] (first compound 0.075 µM, partner dose 1 µM) |  | 82.4% | 80.8% | 24.3%
COc1cc([C@@H]2c3cc4c(cc3[C@@H](O[C@@H]3O[C@@H]5CO[C@@H](C)O[C@H]5[C@H](O)[C@H]3O)[C@H]3COC(=O)[C@H]23)OCO4)cc(OC)c1O [etoposide] + C#Cc1cccc(Nc2ncnc3cc(OCCOC)c(OCCOC)cc23)c1 [erlotinib] (first compound 0.1 µM, partner dose 4 µM) |  | 56% | 51.3% | 67.2%
CCN(CC)CCNC(=O)c1c(C)[nH]c(/C=C2\C(=O)Nc3ccc(F)cc32)c1C [sunitinib] + COc1ccc(Cl)c(Nc2nc3ccccc3nc2NS(=O)(=O)c2cccc(NC(=O)C(C)(C)N)c2)c1 [XL147] (first compound 2 µM, partner dose 4 µM) |  | 57% | 63% | 95.9%
C[C@]1(O)C[C@@H](c2nc(-c3ccc4ccc(-c5ccccc5)nc4c3)c3c(N)nccn32)C1 + COCC[n+]1c2c(n(Cc3cnccn3)c1C)C(=O)c1ccccc1C2=O [YM155] (first compound 2 µM, partner dose 0.002 µM) |  | 58.1% | 17.9% | 68.5%
C[C@]1(O)C[C@@H](c2nc(-c3ccc4ccc(-c5ccccc5)nc4c3)c3c(N)nccn32)C1 + C[C@]1(c2nc3c(C(N)=O)cccc3[nH]2)CCCN1 [Veliparib] (first compound 2 µM, partner dose 7 µM) |  | 89.9% | 76.7% | 85.6%
C[C@]1(O)C[C@@H](c2nc(-c3ccc4ccc(-c5ccccc5)nc4c3)c3c(N)nccn32)C1 + Cn1cc(/C=C2\C(=O)Nc3cccnc32)c2ccccc21 [GW441756] (first compound 2 µM, partner dose 2 µM) |  | 90.6% | 124% | 141%
